Laboratory results published in PubChem BioAssay AID2451 (National Center for Advancing Translational Sciences (NCATS), 2010).
Hit rate of the full screen: of about 290,000 compounds, about 2,100 (0.72%) were called active. Inconclusive results, whose numbers are uncertain, are shown with a selection of clear calls. Calls follow the shape of the dose curve; as a rule, active = well fitted inhibition curve with a large enough effect; inconclusive = small, poorly fitted or top-dose-only effect, or effect the other way; inactive = flat fitted curve, though single readings scatter. Potencies of inconclusive entries are doubtful fits and often do not repeat.

Each molecule was assayed against Fructose-bisphosphate aldolase (Giardia intestinalis (strain ATCC 50803 / WB clone C6)) (UniProt A8B2U2) (assay: qHTS Assay for Inhibitors of Fructose-1,6-bisphosphate Aldolase from Giardia Lamblia). Conditions: purified Giardia FBPA; series mostly up to 59.6 µM.
Sequence of UniProt A8B2U2 (A8B2U2 whole entry, looked up): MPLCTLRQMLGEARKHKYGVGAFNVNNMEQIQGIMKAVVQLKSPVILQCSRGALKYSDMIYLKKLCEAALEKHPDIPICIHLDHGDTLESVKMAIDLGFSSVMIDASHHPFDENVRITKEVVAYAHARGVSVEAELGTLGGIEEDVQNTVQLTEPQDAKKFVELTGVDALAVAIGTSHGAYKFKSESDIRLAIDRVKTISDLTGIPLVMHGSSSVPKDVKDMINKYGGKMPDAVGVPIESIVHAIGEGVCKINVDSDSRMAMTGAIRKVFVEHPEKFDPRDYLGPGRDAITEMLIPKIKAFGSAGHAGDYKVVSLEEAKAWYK
Summary of the method: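 40 nM FBPA preincubated 10 min at RT with compound (up to 57.5 uM final), then substrate plus GAPDH/TPI/NAD/arsenate coupling and diaphorase/resazurin added. Fluorescence read after 20 min at RT, 525/598 nm.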
Also: nearly all actives have a fitted effect of over 55% in size.
Potency is read from the fitted curve at half-maximal effect; tags tell the direction and shape of the fitted curve.

Row | SMILES | Potency
1 | CC1CC(C)CN(C2CCN(Cc3cccnc3)CC2)C1 (configuration not stated) | inconclusive: 19.9 µM [inhibitor, single point]
2 | CCOC(=O)c1c(NC(=O)/C=C\C(=O)O)sc(C)c1-c1ccccc1 | inconclusive: 22.3 µM [activator, partial curve]
3 | CCOc1cc(N2CCOCC2)c(OCC)cc1NC(C)C(=O)N1CCC(C)CC1 (configuration not stated) | inconclusive: 3.54 µM [inhibitor, full curve]
4 | CCOC(=O)/C(C#N)=N/Nc1c(C)n(C)n(-c2ccccc2)c1=O | active: 15.8 µM
5 | O=C(OCn1ncc(Cl)c(Cl)c1=O)c1ccccc1Cl | inactive
6 | Cc1cccc(-c2nc(CS(=O)CC(=O)NC3CCCC(C)C3C)c(C)o2)c1 (configuration not stated) | inactive
7 | Cc1ccc(C(=O)CSc2ncn[nH]2)cc1 | active: 28.2 µM
8 | Nc1ccc2nc(CN3CCOCC3)[nH]c2c1 | inconclusive: 9.98 µM [inhibitor, partial curve]
9 | O=[N+]([O-])c1ccc(Oc2cccc3cccnc23)c(Cl)c1 | inconclusive: 14.1 µM [inhibitor, partial curve]
10 | COC(=O)CCCC1=CC2=C(c3ccccc3)C(=O)C(C)(OC(=O)C3CCCC3)C(=O)C2=CN1CCCOC(C)C (configuration not stated) | inconclusive: 2.51 µM [inhibitor, single point]
11 | COC(=O)CCC(=O)OC1(C)C(=O)C2=CN(c3ccc(OC)cc3)C(c3ccc(OC)cc3)=CC2=C(Br)C1=O (configuration not stated) | inconclusive: 1.58 µM [inhibitor, single point]
12 | O=C(O)/C=C/c1ccccc1Oc1ccc(Cl)cc1Cl | inconclusive: 17.7 µM [activator, partial curve]
13 | Cc1ccc(Sc2nnc(-c3ccccc3)cc2C#N)cc1 | inactive
14 | CCNC(=S)N/N=C/c1ccco1 | inconclusive: 25.1 µM [inhibitor, partial curve]
15 | CCCCOc1ccc(/C(O)=C2/C(=O)C(=O)N(Cc3cccnc3)C2c2ccncc2)c(C)c1 (configuration not stated) | inconclusive: 17.7 µM [activator, single point]
16 | O=C(Nc1ccc(Cl)cc1)C(c1ccccc1)N(CCO)CCO (configuration not stated) | inactive
17 | c1ccc(SSc2ccccc2)cc1 | inconclusive: 19.9 µM [inhibitor, partial curve]
18 | COC(=O)c1ccc(C2/C(=C(/O)c3ccc(OC(C)C)cc3)C(=O)C(=O)N2c2cc(C)on2)cc1 (configuration not stated) | inconclusive: 22.3 µM [activator, partial curve]
19 | COc1ccc(C(=O)Cn2c(NCCCl)nc3ccccc32)cc1 | inconclusive: 25.1 µM [inhibitor, partial curve]
20 | C/C=C(\C)CN1CCN(c2ccc(C)cc2)CC1 | inconclusive: 15.8 µM [inhibitor, partial curve]
21 | O=C(CCl)NCc1cc(-c2ccc(Cl)cc2)no1 | inactive
22 | COc1ccc(-c2nc(N=Nc3ccc(O)cc3)n[nH]2)cc1 | inconclusive: 5.61 µM [inhibitor, partial curve]
23 | O=c1c([N+](=O)[O-])c(O)c2cccc3c2n1CCC3 | inconclusive: 25.1 µM [inhibitor, single point]
24 | CCOC(=O)c1ccc(N2C(=O)C(CC(N)=O)N(NC(=O)c3cccc(F)c3)C2=S)cc1 (configuration not stated) | inconclusive: 14.1 µM [inhibitor, partial curve]

Row | SMILES | Potency
25 | CC(C)C(O)(c1ccccc1)C(CN1CCOCC1)c1ccccc1 (configuration not stated) | inconclusive: 31.6 µM [inhibitor, single point]
26 | CC(C)(C)c1ccc(-c2csc(NNC3=NCCCCC3)n2)cc1 | inconclusive: 14.1 µM [inhibitor, partial curve]
27 | CC(=O)OCCN1CCN(C(=O)CN2C(=O)NC(c3ccccc3)(c3ccccc3)C2=O)CC1 | inactive
28 | Cc1ccc(NC(=S)NCCSc2ccc(Cl)cc2)cc1 | inactive
29 | COc1ccc(CNCC(=O)Nc2cccc(S(N)(=O)=O)c2)cc1 | inconclusive: 4.46 µM [inhibitor, full curve]
30 | Cc1cc(C)cc(NC(=O)C(NCCN2CCOCC2)c2ccccc2)c1 (configuration not stated) | inconclusive: 15.8 µM [inhibitor, partial curve]
31 | CCn1c(=O)n(CC)c2cc(S(=O)(=O)N3CCc4ccccc43)ccc21 | inconclusive: 15.8 µM [inhibitor, partial curve]
32 | Nc1ccc(Cc2nc3cc4ccccc4cc3[nH]2)cc1 | inactive
33 | Cc1cccc(N2CCN(Cc3ccc4c(c3)OCO4)CC2)c1C | inconclusive: 20 µM [inhibitor, partial curve]
34 | COC(=O)CN1C(=S)N(c2ccc(OC)cc2)C(=O)/C1=C/c1ccc(N2CCOCC2)cc1 | inactive
35 | CC(CC(=O)O)Nc1ccccc1O (configuration not stated) | inconclusive: 8.89 µM [inhibitor, partial curve]
36 | CCOc1ccc(Nc2nc(N)nc(CN3CCN(c4ccccc4F)CC3)n2)cc1 | inactive
37 | COc1ccc(N)cc1NC(=O)CN1CCCC1 | inactive
38 | CCOC(=O)c1[nH]c(=O)c2ccccc2c1O | inconclusive: 25.1 µM [inhibitor, partial curve]
39 | N/C(Cc1ccc(Cl)c(Cl)c1)=N\OC(=O)c1ccc(Br)o1 | inactive
40 | CCOC(=O)CSc1nc2ccccc2c(=O)n1CCN1CCOCC1 | inactive
41 | CN1CCN(CCCOc2ccc(-c3ccccc3)cc2)CC1 | inconclusive: 35.5 µM [inhibitor, partial curve]
42 | Cc1ccc(Nc2cc(C)c3ccc(O)cc3n2)cc1C | inconclusive: 19.9 µM [inhibitor, single point]
43 | CCc1ccc(NC(=O)c2cccc(NC3=NC4CS(=O)(=O)CC4S3)c2)cc1 (configuration not stated) | inconclusive: 39.8 µM [inhibitor, single point]
44 | COc1ccc(CNc2cc(-c3ccoc3)ncn2)c(OC)c1 | inactive
45 | CC(=O)N1CCN(C(=O)c2ccc3c(c2)OCCO3)CC1 | inconclusive: 17.8 µM [inhibitor, partial curve]
46 | Cc1ccc(OCC(=O)N2CCN(Cc3cccnc3)CC2)cc1 | inconclusive: 15.8 µM [inhibitor, partial curve]
47 | O=C(NC(=S)N1CCN(c2ccccc2)CC1)c1ccc(S(=O)(=O)N2CCOCC2)cc1 | inconclusive: 6.29 µM [inhibitor, full curve]
